According to the supplement of paper PMC11417369:
± gives the standard deviation of the averaged measurements. The list shows a part of the results.

Each sequence was assayed on PfAP2-EXP AP2 domain (GST-tagged) (assay: gcPBM binding intensity (ln(normalized median fluorescence intensity)); higher = stronger DNA binding).
Method in brief: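 For binding intensity, the highest Masliner-normalised natural-log median intensity across replicate spots of either probe orientation was taken. Protein bound to the array was stained with Alexa488 anti-GST antibody and scanned at 488 nm. The protein, GST-tagged P. falciparum DNA-binding domains from E. coli at about 25 μg on average, had been applied for 1 h to an Agilent 4 × 180k array of primer-extended double-stranded 36-bp intergenic genomic probes and negative controls.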

Sequence | gcPBM binding intensity (ln)
TTCACCAGTTGGTAAACATGCAATTTTCCATACAAG [TGCATGCA_site267] | 8.48 ± 0.35
ATATAAATACATAAATGTACTTACCATTTAAATATG [XGTACX_site5254] | 8.39 ± 0.3
AAAAAAAACGGACACACACACATACCCATACATACA [CACACA_site5574] | 8.78 ± 0.49
ATTCTTTTAAAATAGGTGCTAAAAATAATATGTTAC | 8.71 ± 0.16
ATATAAACAATATTTTGTACATAATTTTATGAGCAT [XGTACX_site6933] | 8.43 ± 0.4
AAAGAAAGAAGAAATTGTACATAATAAATAAGTAAA [XGTACX_site3311] | 8.64 ± 0.49
GCATATGTTTATTGCACACACCAAAAAGAAAACATA [CACACA_site4384] | 8.76 ± 0.4
ATTATTTGTTTAATGAGTACGAAGACAAATTTTACC [XGTACX_site5223] | 8.93 ± 0.42
GTACTATACAAAGATGATAATCAATATATATATATA [XGTACX_negctrl_site264] | 10.1 ± 0.26
TATATACACAGACACACACACACATACACGCACATA [CACACA_site6909] | 8.72 ± 0.4
AAAGGAAAAAAAAGCACACACAATATTACTTGAAAT [CACACA_site2588] | 8.65 ± 0.67
TACATTTATATATATACACACACACTAATAAAAAAA [CACACA_site8845] | 8.77 ± 0.64
TAAATACAGATATATACACACATATATATATTTTAT [CACACA_site5970] | 8.23 ± 0.4
ATATGTATATATAAGGTGCAGAAAGGTGGGCAAAAG | 9.62 ± 0.18
TCATATATTTTAATATGTACACATTTTTTTGGTATA [XGTACX_site8695] | 8.54 ± 0.36
TTTTTCTTTATTAGCACACATAATATTATATATGTG [CACACA_site2629] | 8.62 ± 0.22
TACAGACTAAAATACACACACACACGCACATATATA [CACACA_site7875] | 8.73 ± 0.45
AAATAGAGAAATACAAGTACATATCAAACCAATATA [XGTACX_site1192] | 8.6 ± 0.43
CTTTTGTCATTCTTTTGTACACAGTTTGAAATATGT [XGTACX_site1457] | 8.9 ± 0.31
ATAATAAATAAATAATGTACATATGAAAGAATAAAT [XGTACX_site8355] | 9.06 ± 0.45
ATAAAAAAGAAACAAACACACATACATACAAACAAA [CACACA_site4256] | 8.9 ± 0.51
ATATTTGCATGTGGTAGTACATAACATTCTTTTACA [XGTACX_site8194] | 9.12 ± 0.25
ATATCTTATAATACGGTGCACTTGACATGAACAACT [GTGCAC_site9987] | 9.54 ± 0.38

Sequence | gcPBM binding intensity (ln)
ACATATTATATATGTGTGCACATATATATATATTTA [GTGCAC_site9591] | 8.47 ± 0.13
CTTCAATTAAAATTCACACATATAAATTAAAATATT [CACACA_site6129] | 8.2 ± 0.3
ATATATAATTAATTTTGTACACATAAAAAAAAAAAT [XGTACX_site6647] | 8.59 ± 0.42
AGAGAGAAAGCTATAACATGCAACAATTTTTTGAAA [TGCATGCA_site514] | 8.66 ± 0.44
AAATGACATTTCAAAAGTACATATTTAATTAATTAA [XGTACX_site2919] | 8.29 ± 0.45
TTTATATATATAATATGTACACATAATAATAATACA [XGTACX_site4862] | 8.54 ± 0.28
TTTATTTAAAAAGTTTGTACATATATATTATTTTGA [XGTACX_site6040] | 8.19 ± 0.26
ATATTATAGTTATGAACATGCAAACATTACGAAATA [TGCATGCA_site54] | 8.96 ± 0.27
CATATATAAATATATACACACATACATACATACATA [CACACA_site5988] | 8.73 ± 0.3
AAAAAATATTAGACTTATAAAGCATAAAGGATATTA [GTGCAC_negctrl_site588] | 8.51 ± 0.38
AATTTATTATTTTATTGTACGTATTTTTTTTTTTAT [XGTACX_site2298] | 8.75 ± 0.4
ATAAAAATAAAAAGTGTGCACACAAAAATATATATA [GTGCAC_site9931] | 9.21 ± 0.41
AAAAAGAACAGAAACACACAAATAAAATAAAATTGT [CACACA_site6921] | 8.83 ± 0.44
AAATGTTAATAAAGGTGTACACAAAATAAAAAAAAT [XGTACX_site463] | 9.28 ± 0.41
TTAATTGACATAAAAAGTACTCATATAGATATGCAC [XGTACX_site6391] | 8.46 ± 0.12
TAATTTTATTTTATATGTACGCAATACAAATATATA [XGTACX_site8461] | 8.47 ± 0.17
CACCCCCACAGACACACACACACACCCATATATATA [CACACA_site364] | 9.43 ± 0.25
AAGATTCATTGGTTCTGTACAAAATAAACACTATAA [XGTACX_site834] | 8.77 ± 0.68
AATATATATATTTAAGTGCATAATATTGTAATATTA | 8.54 ± 0.26
TTACCAAAAAAATGTAGTACAATATAATATTATTTA [XGTACX_site5750] | 8.73 ± 0.13
ATATATTATGAAGACTGTACATTTACATGAAAAAAA [XGTACX_site7203] | 8.66 ± 0.36
CGAAGGTTTGGCCATGCATGTTATAAGAATATATGT [TGCATGCA_site441] | 8.92 ± 0.42
